Measured values: PubChem BioAssay AID493208 (National Center for Advancing Translational Sciences (NCATS), 2011)
The whole screen tested about 44,000 compounds, of which about 340 (0.77%) were called active. Not shown: some 5% with an inconclusive outcome. Calls come from the whole dose curve; as a rule, active = well fitted inhibition curve with a large enough effect; inconclusive = small, poorly fitted or top-dose-only effect; inactive = flat fitted curve, though single readings scatter. The list shows a part of the results.

Test: Acumen qHTS Assay for Inhibitors of the mTORC1 Signaling Pathway in MEF (Tsc2-/-, p53-/-) Cells: Sytravon;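 note: plate controls were DMSO for no effect and rapamycin for full effect; nearly all actives have a fitted effect of over 50% in size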
Settings: phospho-rpS6 immunofluorescence/PI, 24 h; series mostly up to 38.3 µM; activity change, negative = inhibition: at the top concentration
Summary of the method: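 Immunofluorescence of rpS6 phosphorylation in Tsc2-/-, p53-/- MEFs after 24 h compound exposure, normalized to propidium iodide signal. Activity is expressed as % positive cells, thresholded with 7.5 nM rapamycin.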

Activity change, negative = inhibition, inactive:
CC(=O)c1ccc(NC(=O)c2ccc3c(c2)N(Cc2cccc(Cl)c2)C(=O)c2ccccc2S3(=O)=O)cc1 -4.11%
COc1ccc(CNC(=O)Cn2ccc3cc(S(=O)(=O)N4CCCCC4)ccc32)c(OC)c1 -10%
Cc1ccc(NC(=O)CN2CCCN(Cc3ccccc3Cl)S2(=O)=O)c(C)c1 -0.439%
COc1ccccc1CNC(=O)CCc1c(C)nc2cc(-c3ccccc3OC)nn2c1C -9.64%
Cc1cc(Cl)ccc1NC(=O)CN1C(=O)CSc2ccc(S(=O)(=O)N(C)C)cc21 -2.34%
CCOCCc1nn2c(=O)cc(COC(=O)COc3ccccc3Cl)nc2s1 -14.5%
CCOc1ccc(C2c3[nH]c4ccccc4c3CCN2C(=O)Cc2cccc(OCC)c2OCC)cc1 (stereo unspecified) -11.2%
Cc1ccccc1Cn1nnc2c(=O)[nH]c(C3CCN(C(=O)c4ccccc4)CC3)nc21 4.51%
CCOC(=O)c1cnc2ccc(C(=O)OC)cc2c1Nc1ccccc1CC -24.7%
Cc1cc(C)cc(-n2ccnc2SCC(=O)Nc2nc3ccccc3s2)c1 -1.28%
COc1ccc(-c2nc3sc(CCNC(=O)c4cccc(C(F)(F)F)c4)c(C)n3n2)cc1 3.14%
CCC(C(=O)NCc1ccccc1OC)n1nc(C)n2c(cc3sccc32)c1=O (stereo unspecified) -6.02%
CCOC(=O)c1c(S(=O)(=O)NCC(=O)Nc2ccc(C)c(Cl)c2)c(C)n(C)c1C 0.548%
CC(C)(C)n1cnc2cc(NCc3ccccc3Cl)ccc21 -11.9%
COc1ccc(NC(=O)C2CCCN2S(=O)(=O)c2cccc3cccnc23)cc1OC (stereo unspecified) 2.96%
CC(C)Oc1ccc(CNC(=O)c2ccc(NC(=O)N3CCSc4ncccc43)cc2)cc1 0.0523%
CN(C)c1ccc(CNC(=O)C2CCN(S(=O)(=O)c3ccc4c(ccn4C)c3)CC2)cc1 -0.892%
Cc1ccc(C)c(Nc2nn3c(=O)c4ccc(C(=O)NCCc5ccccc5)cc4nc3s2)c1 1.4%
Cc1n[nH]c(C)c1S(=O)(=O)N1CCCC(C(=O)Nc2ccc(Cl)cc2)C1 (stereo unspecified) -17.7%
CCN(C(=O)Cn1cc(S(=O)(=O)Cc2ccccc2Cl)c2ccccc21)c1ccccc1 -0.265%
Cc1ccc(C)c(N2CCN(C(=O)Cn3c(-c4cccs4)cc4ccccc43)CC2)c1 -17.8%
CCOC(=O)c1ccc(NC(=O)C(CC)Sc2nc3ncccc3o2)cc1 (stereo unspecified) -5.15%
Cc1ccc(N2CCN(C(=O)c3c4c(nc5ccccc35)C(=O)N(C3CCCCC3)C4)CC2)c(C)c1 8.42%
COc1ccc(C(=O)Nc2nc3c(s2)CCc2cc(OC)ccc2-3)cc1 -1.32%
COCCCn1c(SCC(=O)NCc2ccccc2)nc2c(sc3ccccc32)c1=O 1.21%
CCCCNc1nc(Oc2ccc(OCC(N)=O)nn2)nc(N2CCOCC2)n1 -1.36%
